# The campaign covered roughly 48,000 compounds. About 550 (1.1%) were called active. Not shown: some 4% with an inconclusive outcome. Cut-off read from the data, not from the text of the source: active = potency below about 15 µM; inconclusive = mostly about 16 µM to 33 µM; inactive = weaker than that. Some of the results follow.
# Molecular target: Lysosomal acid glucosylceramidase (Homo sapiens) (UniProt P04062)
# Assay: Glucocerebrosidase;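 note: the screen sought inhibitors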
# Conditions: purified enzyme, resorufin glucoside fluorescence (screen aimed at inhibitors), 20 min; series mostly up to 77 µM
# Outline: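 Compounds titrated against 0.2 nM normal enzyme, 30 uM resorufin beta-D-glucopyranoside substrate, citrate/phosphate buffer with taurocholate and tween-20, pH 5.9. Reaction ran 20 min at room temperature; fluorescence (Ex 548/Em 600) gave AC50.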
# Potency is the fitted concentration of half-maximal effect.
# UniProt P04062, sequence (P04062 whole entry, looked up): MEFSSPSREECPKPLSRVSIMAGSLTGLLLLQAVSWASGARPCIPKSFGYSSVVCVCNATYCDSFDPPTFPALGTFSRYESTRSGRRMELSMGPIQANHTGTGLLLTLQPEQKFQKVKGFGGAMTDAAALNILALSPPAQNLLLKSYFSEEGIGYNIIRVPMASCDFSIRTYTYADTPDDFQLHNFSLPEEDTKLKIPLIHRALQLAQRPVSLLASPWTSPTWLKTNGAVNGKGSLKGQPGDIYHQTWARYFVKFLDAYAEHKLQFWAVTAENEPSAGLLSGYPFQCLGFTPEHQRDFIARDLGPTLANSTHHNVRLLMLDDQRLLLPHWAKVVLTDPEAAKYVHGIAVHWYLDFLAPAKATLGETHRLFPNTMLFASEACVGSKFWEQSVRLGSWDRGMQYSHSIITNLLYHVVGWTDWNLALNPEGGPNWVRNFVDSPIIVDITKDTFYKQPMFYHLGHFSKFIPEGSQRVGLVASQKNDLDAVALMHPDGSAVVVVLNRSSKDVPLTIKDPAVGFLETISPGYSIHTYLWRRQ
row,SMILES,Potency
1,Cn1c(COc2ccc3ccccc3c2)nnc1SCC(N)=O,inactive: > 76.9 µM
2,COc1cc(-c2noc(C3CCCN(S(=O)(=O)c4cccc(Cl)c4)C3)n2)cc(OC)c1OC (configuration not stated),inactive: > 76.9 µM
3,C=CCc1c(C)nn(CC(=O)O)c1-c1ccccc1,inactive: > 76.9 µM
4,CS(=O)(=O)N(CC(=O)NCCSCc1cccc(Cl)c1)c1ccc2c(c1)OCO2,inactive: > 76.9 µM
5,O=C(CN1CCN(S(=O)(=O)c2ccc(F)cc2)CC1)Nc1ccc2c(c1)OCO2,inactive: > 76.9 µM
6,COc1ccc(-c2cc(=O)c3ccccc3s2)cc1,inactive: > 76.9 µM
7,Nn1c(SCC(=O)N2CCCc3ccccc32)nnc1-c1ccccc1,inactive: > 76.9 µM
8,COc1ccc(OC)c(S(=O)(=O)NC2CCN(Cc3ccccc3)CC2)c1,inactive: > 76.9 µM
9,C(=NC12CN3CN(CN(C3)C1)C2)c1ccc2c(c1)OCO2,inactive: > 76.9 µM
10,c1ccc(-c2nc3cc(Oc4ccc5oc(-c6ccccn6)nc5c4)ccc3o2)nc1,inactive: > 76.9 µM
11,Cc1nnc(SCC(=O)NC2CC2)n1CCc1ccccc1,inactive: > 76.9 µM
12,N#CCCS(=O)(=O)c1nnnn1-c1ccccc1,inactive: > 76.9 µM
13,Cc1ccc(C(=O)CC2(O)C(=O)N(Cc3ccc4c(c3)OCO4)c3ccccc32)cc1 (configuration not stated),inactive: > 76.9 µM
14,CCc1ccc(OCC(=O)N(C)C2CCS(=O)(=O)C2)cc1 (configuration not stated),inactive: > 76.9 µM
15,Cc1cccc(CC2CC(=O)N(c3ncccn3)C2=O)c1 (configuration not stated),inactive: > 76.9 µM
16,Cc1ccc(OCC(=O)N(Cc2ccc(N(C)C)cc2)C2CCS(=O)(=O)C2)cc1 (configuration not stated),inactive: > 76.9 µM
17,Cc1sc2ncn3cnnc3c2c1C,inactive: > 76.9 µM
18,CCCCn1nnc(NC(=O)c2ccc(-c3ccccc3)cc2)n1,inactive: > 76.9 µM
19,CCS(=O)(=O)Nc1c(C(=O)O)[nH]c2ccccc12,inactive: > 76.9 µM

row,SMILES,Potency
1,Cn1c(=O)[nH]c(=O)c2c1nc(OC(=O)c1ccccc1)n2CC(O)COc1ccccc1 (configuration not stated),inactive: > 76.9 µM
2,C=CCc1ccccc1OCCn1ccnc1,inactive: > 76.9 µM
3,CC1CCN(CC(=O)Nc2ccccc2C#N)CC1,inactive: > 76.9 µM
4,CSCCC(NC(=O)c1ccc(=O)n(C)n1)c1nc2ccccc2[nH]1 (configuration not stated),inactive: > 76.9 µM
5,CCCCCOC(=O)CSc1nnc(-c2ccccc2)c(=O)[nH]1,inactive: > 76.9 µM
6,O=C(CSc1nnc(CN2CCOCC2)n1-c1ccc(Cl)cc1)N1CCc2ccccc21,inactive: > 76.9 µM
7,Cc1ccc(C(C(=O)NC2CCCCC2)N(CCC(C)C)C(=O)CNC(=O)c2ccco2)o1 (configuration not stated),inactive: > 76.9 µM
8,Cc1ccc(-c2ccc(=O)n(CC(=O)NCCN3CCCCC3C)n2)cc1 (configuration not stated),inactive: > 76.9 µM
9,C[C@H](NC(=O)NCc1cccs1)C(=O)O,inactive: > 76.9 µM
10,O=C(CSc1nnc(CNC(=O)c2ccccc2F)o1)Nc1ccc2c(c1)OCCO2,inactive: > 76.9 µM
11,Cc1ccc(C(=O)N2CCOCC2)cc1S(=O)(=O)Nc1cccc(C)c1C,inactive: > 76.9 µM
12,O=C(CN1CCOCC1)Nc1scc(-c2ccccc2)c1C(=O)N1CCOCC1,inactive: > 76.9 µM
13,O=C(CN(CCc1ccccc1)C(=O)CNS(=O)(=O)c1ccccc1)NCC1CCCO1 (configuration not stated),inactive: > 76.9 µM
14,CC(C)(C)C1CCc2onc(C(=O)NC3CCCC3)c2C1 (configuration not stated),inactive: > 76.9 µM
15,CSCCC1NC(=O)NC1=O (configuration not stated),inactive: > 76.9 µM
16,Cc1cc(OCC(=O)N2CCCC2)cc(C)c1Cl,inactive: > 76.9 µM
17,O=C1CC(N2CCN(C/C=C/c3ccccc3)CC2)C(=O)N1Cc1ccc(N2CCCC2=O)cc1 (configuration not stated),inactive: > 76.9 µM
18,COc1ccc(NC(=O)c2cccc(-n3cnnn3)c2)cc1,inactive: > 76.9 µM
19,O=C(NCc1cccs1)C1CCCN(c2nc3ccccc3o2)C1 (configuration not stated),inactive: > 76.9 µM

row,SMILES,Potency
1,O=C(Cc1ccccc1)Nn1cnc2ccccc21,inactive: > 76.9 µM
2,O=C(Nc1nc(-c2ccc(S(=O)(=O)N3CCCCCC3)cc2)cs1)c1cccs1,active: 13.9 µM
3,Cc1cc(O)c(-c2n[nH]c3c2C(c2cccc(O)c2)N(Cc2cccnc2)C3=O)cc1Cl (configuration not stated),inactive
4,Cc1cc(C)n(C(=O)c2cc3ccccc3c(=O)o2)n1,inactive: > 76.9 µM
5,O=C(O)c1ccc2nc(C(F)(F)F)[nH]c2c1,inactive: > 76.9 µM
6,Cc1ccc(-c2nnn(CC(=O)N(Cc3cccs3)C(C(=O)NC3CCCC3)c3ccco3)n2)o1 (configuration not stated),inactive: > 76.9 µM
7,Cc1cc(C(=O)OCC(=O)NC(=O)NC(C)(C)C)c(C)o1,inactive: > 76.9 µM
8,CC1CCCC(C)N1C(=O)CN1C(=O)C(C)(C)Oc2ccc(C(=O)NC3CCCCC3)cc21 (configuration not stated),inactive: > 76.9 µM
9,CCOC(=O)c1ccc(NC(=O)c2cc(S(=O)(=O)N3CCOCC3)ccc2O)cc1,inactive: > 76.9 µM
10,Cc1nc(SCC(=O)Nc2cc(C)on2)c2c(C)c(C)sc2n1,inactive: > 76.9 µM
11,CCOc1ccc(/C(O)=C2/C(=O)C(=O)N(CCOCCO)C2c2ccc(F)cc2)cc1 (configuration not stated),inactive: > 76.9 µM
12,COc1ccc(NC(=O)CSc2nc3ccccc3c(=O)n2CCNC(C)=O)cc1,inactive: > 76.9 µM
13,Cc1nc(N2CCc3ccccc32)[nH]c(=O)c1CCC(C)C,inactive: > 76.9 µM
14,CCOC(=O)c1cccc(NC(=O)CSc2nnc(-c3cccnc3)n2CC)c1,inactive: > 76.9 µM
15,CCOC(=O)c1c(C)c(C(=O)NC2CCCCCC2)c(C)n1C,inactive: > 76.9 µM
16,Cc1cc2n(n1)C(c1ccc3c(c1)OCO3)Nc1c(C)cccc1-2 (configuration not stated),inactive: > 76.9 µM
17,COc1ccc(-n2nnnc2SCC(=O)N2CCCC2)cc1OC,inactive: > 76.9 µM
18,Cc1cccc(NC(=O)c2snc3c(=O)[nH]cnc23)c1,inactive: > 76.9 µM
19,COc1cc(CO)cc(Br)c1OCC(=O)N1CCCCC1,inactive: > 76.9 µM

# — PubChem BioAssay AID360 (National Center for Advancing Translational Sciences (NCATS), 2006)
